The campaign covered roughly 310,000 compounds. About 14,000 (4.5%) showed an effect of 50% or more. Effects have a minus sign here. The list shows a part of the results.
These compounds were tested against human ether-à-go-go-related gene (hERG) potassium channel (human, UniProt Q12809) (assay: primary screen, population patch clamp on CHO cells stably expressing hERG).
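Also: peak tail current of the secondary pulse compared with the same well before compound.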

human ether-à-go-go-related gene (hERG) potassium channel, sequence (Q12809 whole entry, looked up): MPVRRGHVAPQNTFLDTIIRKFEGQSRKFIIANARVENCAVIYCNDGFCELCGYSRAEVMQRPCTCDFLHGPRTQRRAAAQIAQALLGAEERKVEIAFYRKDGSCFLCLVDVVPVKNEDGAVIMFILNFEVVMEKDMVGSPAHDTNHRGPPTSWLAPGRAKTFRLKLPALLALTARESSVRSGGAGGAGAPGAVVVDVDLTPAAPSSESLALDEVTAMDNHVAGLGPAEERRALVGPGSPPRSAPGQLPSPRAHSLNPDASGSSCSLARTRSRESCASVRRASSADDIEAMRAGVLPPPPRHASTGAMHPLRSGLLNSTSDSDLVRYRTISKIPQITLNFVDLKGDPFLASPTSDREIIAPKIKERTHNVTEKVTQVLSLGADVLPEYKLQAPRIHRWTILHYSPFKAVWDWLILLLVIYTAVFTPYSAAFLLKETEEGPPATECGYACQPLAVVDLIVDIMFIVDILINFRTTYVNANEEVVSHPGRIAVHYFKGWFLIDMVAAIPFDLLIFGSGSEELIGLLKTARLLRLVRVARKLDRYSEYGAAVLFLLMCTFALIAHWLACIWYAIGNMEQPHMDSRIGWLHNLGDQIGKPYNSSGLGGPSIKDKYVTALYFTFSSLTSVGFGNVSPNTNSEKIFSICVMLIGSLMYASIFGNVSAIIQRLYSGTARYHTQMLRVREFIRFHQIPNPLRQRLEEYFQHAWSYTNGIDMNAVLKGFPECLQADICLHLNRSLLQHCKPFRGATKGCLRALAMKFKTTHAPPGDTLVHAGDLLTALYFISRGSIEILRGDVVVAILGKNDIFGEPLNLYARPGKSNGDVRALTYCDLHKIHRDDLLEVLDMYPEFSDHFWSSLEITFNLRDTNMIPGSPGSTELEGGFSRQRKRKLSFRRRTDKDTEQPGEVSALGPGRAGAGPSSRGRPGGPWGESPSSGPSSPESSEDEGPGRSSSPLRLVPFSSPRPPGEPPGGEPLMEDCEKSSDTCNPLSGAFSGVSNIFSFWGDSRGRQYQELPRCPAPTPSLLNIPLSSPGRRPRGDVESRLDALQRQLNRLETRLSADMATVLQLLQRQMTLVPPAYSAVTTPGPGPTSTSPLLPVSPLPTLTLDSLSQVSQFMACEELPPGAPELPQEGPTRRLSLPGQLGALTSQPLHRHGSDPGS

Going from `CCCCN(C)C(=O)CCC(=O)NNc1nc2ccccc2c2nc(C)nn12` to `CCCCOc1ccc(OCCSc2nc3ccccc3n2CC(=O)O)cc1`, the “hERG current change (%, negative = inhibition) at 10uM” value rises from -16% to 13.2%.

Compared with `Cc1cccc(NC(=O)/C=C/c2ccc(Cl)cc2)n1`, `CCOc1ccc(NC(=S)NC(=O)/C=C/c2ccc(Br)cc2)c([N+](=O)[O-])c1` is higher in “hERG current change (%, negative = inhibition) at 10uM” value: 4.16% for the first, 10.7% for the second.

First: COc1cc(C(=O)N2CCSCC2)ccc1OC1CCN(C(C)=O)CC1
Second: COc1ccc(OCC(=O)N2CCN(C(=O)c3ccccc3)CC2)cc1
The “hERG current change (%, negative = inhibition) at 10uM” value of the first is higher: 17% for the first, -12.6% for the second.

Compared with `COc1ccc(-n2cc(CN3CCC(OC)CC3)c(-c3cccc(F)c3)n2)cc1`, `COc1ccc(C(CNC(=O)COc2cccc(C)c2)N2CCCC2)cc1` (stereo not drawn) is lower in “hERG current change (%, negative = inhibition) at 10uM” value: -13.5% for the first, -16.2% for the second.

Going from `COc1nc(N)nc(NC(=O)c2cccs2)c1N=O` to `COc1ccc(NC(C)=O)c2nc(C)c(C)nc12`, the “hERG current change (%, negative = inhibition) at 10uM” value falls from 9.21% to -0.82%.

Going from `Cc1ccc(S(=O)(=O)N2[C@@H](c3ccccc3F)C(C(=O)O)=CC[C@H]2c2cccs2)cc1` to `COc1ccccc1CNS(=O)(=O)c1ccc(NC(C)=O)cc1`, the “hERG current change (%, negative = inhibition) at 10uM” value falls from 26.6% to -2.78%.

First: CC(C)NC(=S)N=Nc1c(O)[nH]c2ccc([N+](=O)[O-])cc12
Second: CC(=O)c1cc(C#N)c(SCc2ccc([N+](=O)[O-])cc2)nc1C
The “hERG current change (%, negative = inhibition) at 10uM” value of the first is lower: 16.9% for the first, 17.7% for the second.

Going from `O=S(=O)(Nc1cccc2ncccc12)c1cccc(C(F)(F)F)c1` to `COc1ccc(CCNS(=O)(=O)c2cccc3cccnc23)cc1OC`, the “hERG current change (%, negative = inhibition) at 10uM” value falls from 4.14% to -2.62%.

Going from `CCC(=O)NNc1cc(=O)c2c(=O)n(C)c(=O)n(C)c2[nH]1` to `Cc1cc(NC(=O)c2ccc3c(c2)C(=O)N(CCC(C)C)C3=O)no1`, the “hERG current change (%, negative = inhibition) at 10uM” value rises from -1.93% to 0.732%.

Compared with `Cc1ccc(N2C(=O)N(c3ccc(C)cc3)C3CS(=O)(=O)CC32)cc1` (stereo not drawn), `Cc1ccc(SCC(=O)Nc2ccc(N3CCOCC3)cc2)cc1` is higher in “hERG current change (%, negative = inhibition) at 10uM” value: 2.93% for the first, 14% for the second.

Going from `C#CCCc1ccccc1/C=[N+](/C)[O-]` to `O=Cc1c(SCCO)nc2ccccn2c1=O`, the “hERG current change (%, negative = inhibition) at 10uM” value falls from 18.9% to -8.54%.

Compared with `CCN1CCCC1CN(Cc1cc2cc(OC)ccc2[nH]c1=O)C(=O)NCc1ccccc1` (stereo not drawn), `COc1ccc(NC(=O)C2CCCN2C(=O)NCc2ccccc2)cc1OC` (stereo not drawn) is higher in “hERG current change (%, negative = inhibition) at 10uM” value: -46.4% for the first, 13.6% for the second.

Compared with `CC(=O)Nc1ccc2nc(NC(=O)c3ccc([N+](=O)[O-])s3)sc2c1`, `CSc1nc2ccc(NC(=O)NC(=O)c3c(F)cccc3F)cc2s1` is lower in “hERG current change (%, negative = inhibition) at 10uM” value: 8.75% for the first, 6.29% for the second.

Compared with `Nc1nonc1-n1nnc(C(=O)N/N=C/c2ccccc2Cl)c1-c1ccc2c(c1)OCO2`, `CC(C)(C)NC(=O)c1cc(-c2ccc3c(c2)OCO3)nc2ccccc12` is lower in “hERG current change (%, negative = inhibition) at 10uM” value: 5.9% for the first, -4.72% for the second.

Going from `CC1(C)CC2CC(C)(CN2C(=O)c2cccs2)C1` (stereo not drawn) to `CN(Cc1cccc(Cl)c1)C(=O)C1CSC2(C)CCC(=O)N12` (stereo not drawn), the “hERG current change (%, negative = inhibition) at 10uM” value falls from 1.71% to -5.77%.

Compared with `Cc1cc(C)c(S(=O)(=O)N2CCN(C(=O)CCOc3ccccc3C)CC2)c(C)c1`, `COc1ccc(Cl)cc1NC(=O)NCC1CCN(Cc2cc(C)ccc2C)CC1` is lower in “hERG current change (%, negative = inhibition) at 10uM” value: -10.7% for the first, -67.7% for the second.

Compared with `COC(=O)C1=C(C)N(c2ccc(OC)c(OC)c2)C(=O)/C1=C\c1ccco1`, `CCOC(=O)C1=C2c3cc(OC)c(OC)cc3CC(C)(C)N2C(=O)C1=O` is higher in “hERG current change (%, negative = inhibition) at 10uM” value: -1.01% for the first, 2.44% for the second.

Going from `COc1cccc(NC(=S)N(Cc2ccc(Cl)cc2)Cc2ccc(C(=O)O)cc2)c1` to `COc1ccc(C(=O)N/N=C/c2ccc3cccc(OCc4ccccc4)c3n2)cc1`, the “hERG current change (%, negative = inhibition) at 10uM” value falls from 25.6% to 14.3%.

Going from `CCCNC(=O)Cn1c(=O)oc2cc(S(=O)(=O)N3CCCC3)ccc21` to `O=C1CCCN1CC(=O)N1CCCC(Nc2cccc(F)c2)C1` (stereo not drawn), the “hERG current change (%, negative = inhibition) at 10uM” value falls from 11.9% to 1.96%.

Compared with `Cc1ccccc1CS(=O)(=O)Cc1ccc(C(=O)NC2CCCC2)o1`, `Cc1ccc(OCc2ccc(C(=O)Nc3nccs3)o2)cc1C` is higher in “hERG current change (%, negative = inhibition) at 10uM” value: -3.51% for the first, 1.4% for the second.

First: O=C(/C=C/c1ccco1)N1CCN(c2ncccn2)CC1
Second: COc1ccccc1N1CCN(C(=O)c2cccc(Oc3ccccc3)c2)CC1.Cl
The “hERG current change (%, negative = inhibition) at 10uM” value of the first is higher: -12.6% for the first, -17.9% for the second.

First: O=S(=O)(NCC1CCN(Cc2ccccc2)CC1)c1ccccc1C(F)(F)F
Second: O=C(NNC(=O)C1CCN(Cc2ccccc2)CC1)c1cccs1
The “hERG current change (%, negative = inhibition) at 10uM” value of the first is lower: -37.3% for the first, 10.8% for the second.

Compared with `CCCN1CCC(=O)N([C@H](CSc2ccc(OC)cc2)c2ccccc2)CC1`, `CN1CCN(C(=O)/C(=C/c2ccc(N(C)C)cc2)NC(=O)c2ccccc2)CC1` is higher in “hERG current change (%, negative = inhibition) at 10uM” value: -76.5% for the first, -17.5% for the second.

Going from `CCOc1ccc(C(=O)C[n+]2ccccc2C)cc1.[Cl-]` to `COCCNCCOc1ccc(C(C)(C)c2ccccc2)cc1.O=C(O)C(=O)O`, the “hERG current change (%, negative = inhibition) at 10uM” value falls from -16.8% to -39.1%.

Going from `CC(=O)c1ccc(C(=O)N2CCc3c([nH]c4ccccc34)C2c2cccc(C)n2)s1` (stereo not drawn) to `CN(CCOc1ccccc1)C(=O)C1CCN(C(=O)c2ccc(F)cc2)CC1`, the “hERG current change (%, negative = inhibition) at 10uM” value falls from -14.9% to -19.9%.

First: Cn1c(CCNC(=O)c2cccs2)nnc1SCC(=O)Nc1nc(-c2ccccc2)cs1
Second: Cc1cccnc1NC(=O)CSc1nnc(COc2ccc(C(C)C)cc2)n1C
The “hERG current change (%, negative = inhibition) at 10uM” value of the first is lower: -7.06% for the first, 4.48% for the second.

Going from `NS(=O)(=O)c1ccc(CCNC(=O)CCCCCn2c(=S)[nH]c3ccc(Br)cc3c2=O)cc1` to `CCCNS(=O)(=O)c1ccc(NC(=O)c2cccnc2)cc1`, the “hERG current change (%, negative = inhibition) at 10uM” value falls from 9.32% to -4.88%.

Compared with `Cc1cc(C)c(C#N)c(SCc2cn3c(C)cccc3n2)n1`, `COCCSc1nc2c(c(=O)[nH]c(=O)n2C)n1Cc1cccc(C)c1` is lower in “hERG current change (%, negative = inhibition) at 10uM” value: -3.15% for the first, -45.6% for the second.

First: Cc1occc1-c1nnc(SCC(=O)N(C)C)o1
Second: CCOC(=O)C1=C(C)NC(SCC(=O)O)=NC1c1ccccc1 (stereo not drawn)
The “hERG current change (%, negative = inhibition) at 10uM” value of the first is lower: -0.525% for the first, 5.32% for the second.

Compared with `O=C(NCC1CCCO1)C1CC(=O)N(c2ccccc2)C1` (stereo not drawn), `O=C(CSc1nc2c(c(=O)n1-c1ccc(Cl)cc1)SCC2)NCC1CCCO1` (stereo not drawn) is lower in “hERG current change (%, negative = inhibition) at 10uM” value: -9.86% for the first, -34.5% for the second.

Going from `Cc1cccc(N(CC(=O)NCc2ccco2)C(=O)CCC(=O)Nc2nccs2)c1C` to `CC(C)(C)c1ccc(C(=O)Nc2ccccc2NC(=O)c2ccco2)cc1`, the “hERG current change (%, negative = inhibition) at 10uM” value falls from 13.1% to 0.205%.

Going from `O=C(c1cccs1)N1CCCC(N2CCN(c3cccc(C(F)(F)F)c3)CC2)C1` (stereo not drawn) to `O=C(c1cc2nc(-c3ccc(F)cc3)cc(C(F)(F)F)n2n1)N1CCOCC1`, the “hERG current change (%, negative = inhibition) at 10uM” value rises from -68.4% to 8.35%.

First: O=C(NNC(=S)Nc1ccccc1Cl)c1ccncc1
Second: Cc1ccc(NC(=S)NC2CCN(Cc3ccccc3)CC2)cc1
The “hERG current change (%, negative = inhibition) at 10uM” value of the first is higher: 9.23% for the first, -46% for the second.

Compared with `CCCCNC(=O)c1ccc(NC(=O)C2CCCO2)cc1` (stereo not drawn), `Cc1ccc(NC(=O)NC2CC(=O)N(c3ccc4c(c3)OCCO4)C2)cc1C` (stereo not drawn) is higher in “hERG current change (%, negative = inhibition) at 10uM” value: 4.17% for the first, 4.96% for the second.

Going from `CC(NC(=O)COC(=O)c1cc(Cl)nc(Cl)c1)c1ccccc1` (stereo not drawn) to `CCN1C(=O)C(C(=O)NC(C)c2ccccc2)C2CC1(C)Oc1ccccc12` (stereo not drawn), the “hERG current change (%, negative = inhibition) at 10uM” value falls from 0.266% to -13.5%.

Compared with `COc1ccc2[nH]c(-c3ccccc3)cc2c1`, `COc1ccccc1-c1cc(C(F)(F)F)nc(NCc2cccs2)n1` is lower in “hERG current change (%, negative = inhibition) at 10uM” value: 17.4% for the first, -11.3% for the second.

First: Cc1ccc(-c2csc3nc(-c4ccncc4)[nH]c(=O)c23)cc1
Second: Cc1ccc(-c2csc(=S)[nH]2)cc1
The “hERG current change (%, negative = inhibition) at 10uM” value of the first is lower: -7.25% for the first, 19.1% for the second.

First: COc1ccc(N(C(=O)c2csnn2)C(C(=O)NC2CCCC2)c2cccs2)cc1 (stereo not drawn)
Second: O=C(NC1CCCN(Cc2ccc(Cl)cc2)C1)c1c(F)cccc1F (stereo not drawn)
The “hERG current change (%, negative = inhibition) at 10uM” value of the first is lower: -17.7% for the first, -15.7% for the second.

First: O=c1[nH][nH]c(C(F)(F)F)c1C=NCc1ccc(Cl)cc1
Second: CCc1ccc(C2=NNC(=Nc3cccc(S(=O)(=O)N(C)C)c3)SC2)cc1
The “hERG current change (%, negative = inhibition) at 10uM” value of the first is higher: -1.88% for the first, -2.59% for the second.

First: Cc1cc(N2CCN(c3ccccn3)CC2)n2cc(-c3ccccc3)nc2n1
Second: Nc1nc(CN2CCN(c3ccccn3)CC2)nc(Nc2ccc(F)cc2)n1
The “hERG current change (%, negative = inhibition) at 10uM” value of the first is lower: -72.3% for the first, -67.4% for the second.

Going from `Brc1ccc2nc(N3CCCC3)sc2c1` to `O=C(c1cc(Cl)nc2ccccc12)N1CCCCC1`, the “hERG current change (%, negative = inhibition) at 10uM” value falls from 13% to 1.32%.

Compared with `OCCC1CN(Cc2nc3ccc(F)cc3[nH]2)CCN1C1CCCC1` (stereo not drawn), `Cc1cc(OCC(O)CN2CCN(CCO)CC2)ccc1C(C)C.Cl` (stereo not drawn) is higher in “hERG current change (%, negative = inhibition) at 10uM” value: -15.9% for the first, -3.17% for the second.

Compared with `c1ccc(OCCCc2nc(-c3ccccn3)no2)cc1`, `CCOC(=O)c1sc2nc(CSc3ccccc3)[nH]c(=O)c2c1C` is higher in “hERG current change (%, negative = inhibition) at 10uM” value: -0.0161% for the first, 3.8% for the second.

First: Cc1cccc(N2CCc3c2nc2ccc(Br)cc2c3N)c1.Cl
Second: N#Cc1cnn2c(-c3cccc([N+](=O)[O-])c3)ccnc12
The “hERG current change (%, negative = inhibition) at 10uM” value of the first is higher: 6.56% for the first, -52.7% for the second.

Going from `CC1CCCN(C(=S)NCCc2ccccc2)C1` (stereo not drawn) to `COC(=O)NC1(C(F)(F)F)C(=O)NC(C)=C1C(=O)OC` (stereo not drawn), the “hERG current change (%, negative = inhibition) at 10uM” value rises from 2.96% to 11.2%.

Reference: article PMC4336329 (PLoS ONE, 2015)
